Assay [1] deals with T1, Human OX40 (human, UniProt P43489 29-277).
T1 construct: also called CD134; TNFRSF4
T1 sequence: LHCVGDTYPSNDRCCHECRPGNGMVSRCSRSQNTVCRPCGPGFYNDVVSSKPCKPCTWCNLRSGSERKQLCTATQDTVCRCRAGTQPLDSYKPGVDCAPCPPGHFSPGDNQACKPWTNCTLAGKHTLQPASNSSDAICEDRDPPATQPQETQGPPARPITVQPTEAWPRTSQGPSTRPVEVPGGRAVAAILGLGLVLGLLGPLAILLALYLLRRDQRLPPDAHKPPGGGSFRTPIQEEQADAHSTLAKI
The experiment in a line: flow cytometry on human OX40-overexpressing Jurkat NFkB-luciferase clone 64 cells, AlexaFluor 647 anti-human IgG secondary [panel B]. The procedure:
(§1) Human OX40-overexpressing Jurkat NFκB-luciferase clone 64 cells were cultured in complete RPMI+10% FBS prior to binding experiments, without the need for activation.
(§2) OX40mAb24 (10 μg/mL) or 9B12 (10 μg/mL) was diluted over a 17 point 2-fold dilution series. OX40mAb24 was added to 100,000 cells (activated primary CD4⁺ T cells or human OX40-overexpressing Jurkat NFkB-luciferase clone 64 cells) per well and incubated for one hour at 4° C. For background binding subtraction, cells were incubated in the presence of secondary antibody alone. […] Following secondary antibody incubation, cells were washed and suspended in 100 μL FACS buffer for flow cytometry analysis on a BD LSRII flow cytometer as described below.
On the technique in general: Flow cytometry measures light scatter and fluorescence of single cells or particles in a stream.

Assay [2] concerns the target T1, Human OX40. The experiment in a line: flow cytometry on human OX40-overexpressing Jurkat clone 64 cells; 50% receptor occupancy calculated from Kd. The procedure: as §1, §2
The target of assay [3] is T2, Rhesus monkey OX40 (rhesus monkey).
T2 construct: also called rhesus macaque OX40
The experiment in a line: flow cytometry, equilibrium binding to activated primary rhesus CD4+ T cells; mean of 2 experiments (StdErr).

The target of assay [4] is T1, Human OX40. Description: flow cytometry, equilibrium binding to activated primary human CD4+ T cells; apparent Kd, mean of 6 donors (StdErr). The procedure: as §2
Assay [5] concerns the target T3, Cynomolgus monkey OX40 (cynomolgus monkey).
T3 construct: also called cyno OX40
Description: flow cytometry, equilibrium binding to activated primary cynomolgus CD4+ T cells; mean of 2 experiments (StdErr). The procedure:
Cyno CD4⁺ T cell isolation was performed with a Miltenyi non-human primate kit according to manufacturer's instructions, then CD4⁺ T cells counted on a ViCell counter and suspended at 1×10⁶ per mL in complete medium as described above.
Cyno CD4⁺ T cells (1×10⁶ per mL in complete medium) were incubated for 48 hours in a T75 cell culture flask with 2 μg/mL PHA-L and 20 IU/mL IL-2, to activate T cells and induce OX40 expression. Activated CD4⁺ T cells were removed from the flask and 100,000 cells were transferred to each well of a non-tissue culture treated 96-well round-bottom plate for binding assays and washed with 200 μL FACS buffer. Binding was performed with 10 μg/mL OX40mAb24 or 9B12 serially diluted 4-fold in FACS buffer for an 11-point data curve, or both R347 human IgG1 or mouse IgG1 clone MOPC-21 (negative controls) serially diluted 6-fold for a 3 point data curve. OX40mAb24, 9B12 or control protein was added to CD4⁺ T cells and incubated. […] Following secondary antibody incubation, cells were processed for flow cytometry as described in Section 2.3.

Assay [6] deals with T4, Human TNFRSF14 (HVEM) expressed on HEK293 cells (human, UniProt Q92956 39-283).
T4 construct: whole, on cells; also called TR2
T4 sequence (looked up): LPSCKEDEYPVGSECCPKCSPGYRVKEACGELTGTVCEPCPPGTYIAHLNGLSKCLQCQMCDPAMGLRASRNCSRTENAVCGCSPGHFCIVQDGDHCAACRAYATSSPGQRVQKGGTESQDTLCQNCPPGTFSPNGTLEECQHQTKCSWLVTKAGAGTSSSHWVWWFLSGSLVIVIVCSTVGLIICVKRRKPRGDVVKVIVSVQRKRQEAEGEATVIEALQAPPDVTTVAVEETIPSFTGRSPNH
The experiment in a line: flow cytometry on transfected HEK293 cells, 1 µg/mL. An excerpt: (§3) cDNA constructs capable of directing the expression of individual TNFRSF members, when transfected into mammalian cells, were obtained from Origene Technologies, Rockville, Md. These cDNA constructs were amplified and purified by the Protein Sciences group at MedImmune in Gaithersburg, Md. for use in transient transfections. […] Forty-eight hours post transfection, cells were removed from tissue culture plates by trypsinization. […] Cells were then suspended in cold FACS buffer (PBS+2% FBS) and plated into 96 well non-tissue culture-treated plates for binding studies with TNFRSF member-specific mAbs (Table 3-3) and OX40mAb24.
(§4) For binding of antibodies or OX40mAb24, HEK cells were pelleted, FACS buffer removed, and cells suspended in FACS buffer containing 2 μg/mL propidium iodide (PI) and either a fluorochrome-labeled mAb, specific for the transfected TNFRSF member, at a concentration recommended by the manufacturer or with OX40mAb24 at a concentration of 1 μg/mL. For binding controls, cells were separately incubated with fluorochrome-labeled isotype control antibodies. Cells were incubated with antibodies for 1 hour at 4° C. in the dark. Thereafter, cells incubated with fluorochrome-labeled monoclonal antibodies were washed in cold FACS buffer and then binding events collected and analyzed by flow cytometry using an LSRII flow cytometer (BD Biosciences, San Jose, Calif.) and FlowJo software, as described in Section 3.2.3. Cells incubated with OX40mAb24 were washed in ice cold FACS buffer and then suspended 25 μg/mL of Alexa Fluor® 647 goat antihuman IgG (H+L) secondary antibody and incubated for a further 30 minutes at 4° C. in the dark. For a secondary antibody binding control cells were incubated in the absence of OX40mAb24, but in the presence of fluorochrome-labeled secondary antibody alone. Thereafter, cells were washed and suspended in cold FACS buffer for analysis on an LSRII flow cytometer.

Assay [7] deals with T5, Human TNFRSF9 (CD137) expressed on HEK293 cells (human, UniProt Q07011 24-255).
T5 construct: whole, on cells; also called 4-1BB
The assay is described as above.
From the text: as §3, §4

For assay [8], the target named is T1, Human OX40. The experiment in a line: cell-based or functional assay.

For orientation: EC50 (read off the curve) means the concentration giving half of the maximal effect. By EC50 is commonly meant the midpoint of the concentration-response curve.

T5 sequence (Q07011 24-255): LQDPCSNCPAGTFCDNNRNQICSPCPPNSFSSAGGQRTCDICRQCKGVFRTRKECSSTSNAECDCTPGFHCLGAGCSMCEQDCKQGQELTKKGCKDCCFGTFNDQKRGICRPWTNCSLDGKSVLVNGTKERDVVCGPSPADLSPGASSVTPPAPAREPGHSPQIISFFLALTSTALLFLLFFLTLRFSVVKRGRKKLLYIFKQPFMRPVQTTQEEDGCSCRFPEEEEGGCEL

B1: OX40mAb24 (antibody, human IgG1, kappa)
heavy: QVQLQESGPGLVKPSQTLSLTCAVYGGSFSSGYWNWIRKHPGKGLEYIGYISYNGITYHNPSLKSRITINRDTSKNQYSLQLNSVTPEDTAVYYCARYKYDYDGGHAMDYWGQGTLVTVSSASTKGPSVFPLAPSSKSTSGGTAALGCLVKDYFPEPVTVSWNSGALTSGVHTFPAVLQSSGLYSLSSVVTVPSSSLGTQTYICNVNHKPSNTKVDKRV[skipping human IgG1 Fc]
light: DIQMTQSPSSLSASVGDRVTITCRASQDISNYLNWYQQKPGKAPKLLIYYTSKLHSGVPSRFSGSGSGTDYTLTISSLQPEDFATYYCQQGSALPWTFGQGTKVEIKRTVAAPSVFIFPPSDEQLKSGTASVVCLLNNFYPREAKVQWKVDNALQSGNSQESVTEQDSKDSTYSLSSTLTLSKADYEKHKVYACEVTHQGLSSPVTKSFNRGEC
notes: Humanized from 9B12; human IgG1 kappa; also called humanized anti-human OX40 IgG1κ monoclonal antibody
Turning to B1, the “EC50 (read off the curve)” value in assay [1] was around 0.1 nM. Further, the EC50 in assay [2] is 0.424 nM. Moreover, the values for the Kd in assay [3], in assay [4] and in assay [5] were 0.369 nM, 0.312 nM and 0.581 nM, respectively. Besides, the “ratio of MFI to secondary antibody alone” value in assay [6] was 1.1 fold; in assay [7] it was 1.2 fold. In addition, in assay [8], the “EC50, IL10 release, donor 367” value was found to be 0.0595 nM. Moreover, the “EC50, IL10 release, donor 651” value in assay [8] is 0.0864 nM. Besides, the “EC50, IL10 release, donor 661” value in assay [8] was found to be 0.0895 nM.

(Values after patent publication US20160137740A1 (AstraZeneca / MedImmune, published 2016).)
